{
  "source": "paper PMC8536713",
  "binders": {"B1": {"name": "Dbp7-GFP (enzyme, UniProt P36120 1-742)", "chain": "MSDEDSMLLNFTTNEDTAGSSYKQAAKVTGGRWKDRRRMKMKLEGKTVSRKRKANTTGDEGIIPGRGENSIKKLHKESSYSSEEQEKYKGRNAHNTQGRTLPADSQFVSSLFTSNREITTAVNTNIHDENVAINPSNAPLKGDQFASLGVSSLLVSHLEQKMRIKKPTSIQKQAIPQIIGNAGKNDFFIHAQTGSGKTLSYLLPIISTILNMDTHVDRTSGAFALVIAPTRELASQIYHVCSTLVSCCHYLVPCLLIGGERKKSEKARLRKGCNFIIGTPGRVLDHLQNTKVIKEQLSQSLRYIVLDEGDKLMELGFDETISEIIKIVHDIPINSEKFPKLPHKLVHMLCSATLTDGVNRLRNVALKDYKLISNGTKKDSDIVTVAPDQLLQRITIVPPKLRLVTLAATLNNITKDFIASGQQSKTLRTIVFVSCSDSVEFHYDAFSGSDGHHKNLTGDSVRLLTKGNTMFPCFSDSRDPDVVIYKLHGSLSQQMRTSTLQHFARDNEATKGKHLIMFCTDVASRGLDLPHVGSVIELDPPFAVEDHLHRVGRTARAGEKGESLLFLLPGEEEKYMDYIQPYHPMGWELLKFDKEILMPAFKDVNVNRNDKFIRKDEKSSKNKDVGDKEYEWDTNATTWHLNIERRVVGDSAFKNLAVKGFISHVRAYATHISQEKKFFNVKFLHLGHLAKSFGLRERPKAMGLQSSKDGNSEKKPTKENSKNKMFRMARMAEKQIASEFNY"}},
  "assay_in_all_cases": "pull-down; pre-60S particles isolated via affinity-tagged assembly factors from yeast strains expressing Dbp7-GFP; Dbp7-GFP detected in the particles (Supplementary Fig. 1c)",
  "key": {"[1]": {"biological_target": "T1, affinity-tagged Ssf1 (S. cerevisiae) (UniProt P38789)", "T1 sequence": "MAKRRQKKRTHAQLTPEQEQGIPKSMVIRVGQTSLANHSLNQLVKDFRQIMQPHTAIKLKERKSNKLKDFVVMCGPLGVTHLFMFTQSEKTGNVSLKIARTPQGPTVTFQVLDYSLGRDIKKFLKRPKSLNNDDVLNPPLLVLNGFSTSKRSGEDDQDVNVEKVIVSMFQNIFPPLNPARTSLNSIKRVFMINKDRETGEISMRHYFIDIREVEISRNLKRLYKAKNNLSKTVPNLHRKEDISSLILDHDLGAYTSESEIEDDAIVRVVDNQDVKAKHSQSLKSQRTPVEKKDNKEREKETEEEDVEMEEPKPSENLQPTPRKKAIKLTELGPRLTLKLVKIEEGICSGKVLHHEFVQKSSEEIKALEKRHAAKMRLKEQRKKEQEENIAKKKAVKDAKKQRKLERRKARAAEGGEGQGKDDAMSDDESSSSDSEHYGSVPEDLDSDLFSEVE"}, "Nop2-TAP (S. cerevisiae)": {"biological_target": "T2, Nop2-TAP (S. cerevisiae) (UniProt P40991)", "T2 sequence": "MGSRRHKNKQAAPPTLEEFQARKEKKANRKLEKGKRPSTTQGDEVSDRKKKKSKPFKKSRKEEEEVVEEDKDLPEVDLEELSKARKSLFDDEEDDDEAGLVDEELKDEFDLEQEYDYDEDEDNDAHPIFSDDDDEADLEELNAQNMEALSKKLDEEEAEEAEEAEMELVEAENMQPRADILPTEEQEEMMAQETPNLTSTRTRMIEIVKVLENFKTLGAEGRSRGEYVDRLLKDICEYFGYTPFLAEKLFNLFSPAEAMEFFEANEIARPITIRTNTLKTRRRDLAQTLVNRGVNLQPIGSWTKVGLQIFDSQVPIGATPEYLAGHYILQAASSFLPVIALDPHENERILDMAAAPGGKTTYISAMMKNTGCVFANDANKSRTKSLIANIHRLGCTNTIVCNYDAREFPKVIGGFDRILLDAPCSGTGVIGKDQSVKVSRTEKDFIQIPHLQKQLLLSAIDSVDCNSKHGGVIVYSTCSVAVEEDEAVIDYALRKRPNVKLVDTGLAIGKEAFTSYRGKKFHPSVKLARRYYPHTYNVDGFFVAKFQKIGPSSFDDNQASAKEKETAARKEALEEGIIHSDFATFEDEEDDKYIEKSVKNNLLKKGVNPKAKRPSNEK"}, "[2]": {"biological_target": "T3, affinity-tagged Nip7 (S. cerevisiae) (UniProt Q08962)", "T3 sequence": "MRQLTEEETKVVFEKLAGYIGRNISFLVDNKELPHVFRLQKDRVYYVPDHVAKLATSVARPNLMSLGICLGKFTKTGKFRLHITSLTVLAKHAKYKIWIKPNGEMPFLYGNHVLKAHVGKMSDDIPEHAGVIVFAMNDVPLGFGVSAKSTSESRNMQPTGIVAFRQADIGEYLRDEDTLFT"}, "[3]": {"biological_target": "T4, affinity-tagged Arx1 (S. cerevisiae) (UniProt Q03862)", "T4 sequence": "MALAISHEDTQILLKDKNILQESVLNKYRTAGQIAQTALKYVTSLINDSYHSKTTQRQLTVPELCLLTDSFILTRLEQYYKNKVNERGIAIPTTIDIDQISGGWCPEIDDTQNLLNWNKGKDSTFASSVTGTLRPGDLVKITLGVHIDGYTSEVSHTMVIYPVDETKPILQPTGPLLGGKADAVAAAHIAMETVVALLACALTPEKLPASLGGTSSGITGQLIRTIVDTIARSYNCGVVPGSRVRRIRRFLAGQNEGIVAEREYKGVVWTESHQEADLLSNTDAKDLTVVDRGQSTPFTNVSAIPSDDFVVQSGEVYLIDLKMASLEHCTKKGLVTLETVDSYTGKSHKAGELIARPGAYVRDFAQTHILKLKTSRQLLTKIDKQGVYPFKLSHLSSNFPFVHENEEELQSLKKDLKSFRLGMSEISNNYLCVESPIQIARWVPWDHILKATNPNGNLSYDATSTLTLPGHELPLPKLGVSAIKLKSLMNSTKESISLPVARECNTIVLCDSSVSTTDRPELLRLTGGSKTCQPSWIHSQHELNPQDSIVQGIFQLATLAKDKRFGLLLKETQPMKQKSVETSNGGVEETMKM"}, "[4]": {"biological_target": "T5, affinity-tagged Erb1 (S. cerevisiae) (UniProt Q04660)", "T5 sequence": "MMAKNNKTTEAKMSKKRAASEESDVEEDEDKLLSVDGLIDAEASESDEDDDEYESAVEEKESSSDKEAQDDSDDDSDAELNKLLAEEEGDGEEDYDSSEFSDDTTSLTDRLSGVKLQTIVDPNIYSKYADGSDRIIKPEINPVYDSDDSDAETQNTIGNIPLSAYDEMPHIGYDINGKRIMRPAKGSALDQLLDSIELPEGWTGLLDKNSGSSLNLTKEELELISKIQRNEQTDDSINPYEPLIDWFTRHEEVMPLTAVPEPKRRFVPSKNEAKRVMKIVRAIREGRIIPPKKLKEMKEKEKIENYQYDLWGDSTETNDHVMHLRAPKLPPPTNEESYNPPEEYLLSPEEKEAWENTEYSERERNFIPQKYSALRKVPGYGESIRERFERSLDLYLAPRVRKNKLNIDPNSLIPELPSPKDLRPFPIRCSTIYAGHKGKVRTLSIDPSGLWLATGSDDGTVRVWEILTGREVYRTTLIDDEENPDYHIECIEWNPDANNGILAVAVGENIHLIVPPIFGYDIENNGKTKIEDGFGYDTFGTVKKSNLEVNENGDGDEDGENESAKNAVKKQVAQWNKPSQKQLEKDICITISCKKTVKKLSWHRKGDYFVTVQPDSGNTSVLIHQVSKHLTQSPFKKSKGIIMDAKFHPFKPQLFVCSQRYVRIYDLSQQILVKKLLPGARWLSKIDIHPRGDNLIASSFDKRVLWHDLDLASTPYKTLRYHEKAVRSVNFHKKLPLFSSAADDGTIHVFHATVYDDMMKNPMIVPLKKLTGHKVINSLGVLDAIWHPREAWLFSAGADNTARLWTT"}},
  "note": "No constants are given. Whether binding was seen depends on the method and setting. In cells and extracts the contact can be indirect. Some binding calls cover weakened binding; strength is not graded here. Tags and fused reporters may be left off the sequences shown.",
  "data": [
    {"binder": "B1", "values": [
      {"measurement": "binding", "setting": "[1]", "value": "binds"},
      {"measurement": "binding", "setting": "Nop2-TAP (S. cerevisiae)", "value": "binds"},
      {"measurement": "binding", "setting": "[2]", "value": "binds"},
      {"measurement": "binding", "setting": "[3]", "value": "no binding"},
      {"measurement": "binding", "setting": "[4]", "value": "binds"}
    ]}
  ]
}
